Hit rate of the full screen: of about 310,000 compounds, about 2,200 (0.71%) showed an effect of 50% or more. Effects have a minus sign here. This is one part of the list.
target: human ether-à-go-go-related gene (hERG) potassium channel (human, UniProt Q12809); test: primary screen, population patch clamp on CHO cells stably expressing hERG
Sequence (Q12809 whole entry, looked up): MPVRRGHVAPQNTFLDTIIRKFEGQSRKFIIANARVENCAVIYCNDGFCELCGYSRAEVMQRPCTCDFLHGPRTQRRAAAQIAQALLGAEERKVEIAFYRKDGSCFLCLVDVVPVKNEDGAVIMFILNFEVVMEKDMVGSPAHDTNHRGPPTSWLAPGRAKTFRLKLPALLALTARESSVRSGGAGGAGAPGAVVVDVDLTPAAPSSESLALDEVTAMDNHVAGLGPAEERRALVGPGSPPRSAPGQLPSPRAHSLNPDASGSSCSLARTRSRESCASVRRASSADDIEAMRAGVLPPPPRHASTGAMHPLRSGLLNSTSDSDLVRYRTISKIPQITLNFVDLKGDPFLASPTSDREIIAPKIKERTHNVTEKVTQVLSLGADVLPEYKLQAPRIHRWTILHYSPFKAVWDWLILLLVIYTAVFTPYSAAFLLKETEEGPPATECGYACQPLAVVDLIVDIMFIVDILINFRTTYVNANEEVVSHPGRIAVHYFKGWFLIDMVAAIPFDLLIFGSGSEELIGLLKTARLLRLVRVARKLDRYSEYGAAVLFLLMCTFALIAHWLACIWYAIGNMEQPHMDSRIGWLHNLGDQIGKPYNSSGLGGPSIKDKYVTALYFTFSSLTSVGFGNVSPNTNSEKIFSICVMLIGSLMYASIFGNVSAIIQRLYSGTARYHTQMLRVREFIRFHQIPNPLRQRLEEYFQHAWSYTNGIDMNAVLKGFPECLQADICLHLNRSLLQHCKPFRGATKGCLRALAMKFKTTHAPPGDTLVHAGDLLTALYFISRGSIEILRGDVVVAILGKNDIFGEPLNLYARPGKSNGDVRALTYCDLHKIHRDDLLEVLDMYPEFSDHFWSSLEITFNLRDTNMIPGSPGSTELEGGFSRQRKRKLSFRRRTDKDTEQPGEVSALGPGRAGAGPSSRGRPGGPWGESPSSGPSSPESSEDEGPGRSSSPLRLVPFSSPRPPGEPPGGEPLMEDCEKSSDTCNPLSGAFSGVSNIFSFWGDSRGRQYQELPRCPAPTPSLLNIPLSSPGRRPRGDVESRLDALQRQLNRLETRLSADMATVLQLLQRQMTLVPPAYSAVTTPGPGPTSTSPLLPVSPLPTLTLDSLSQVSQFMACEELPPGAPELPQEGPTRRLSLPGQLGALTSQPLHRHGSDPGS

Structure (SMILES) | hERG current change (%, negative = inhibition) at 1uM
Cc1ccc(NC(=O)C(=O)NCc2ccc(/C=N/NC(=O)c3c(C)nc4cc(C)ccn34)o2)cc1 | -41.6%
CCOc1c(Br)cc(C2NC(=O)CCC2[N+](=O)[O-])cc1OC (stereo not drawn) | 8.77%
CCn1c(COc2ccccc2OC)nnc1SCC#N | 7.88%
CCOC(=O)c1c(-c2ccccc2)cn2ccccc12 | -8.12%
COc1ccc(CCN2C(=O)N[C@@H](CCC(=O)O)C2=O)cc1 | 15.7%
Cc1ccc(C(C)(C)C)cc1S(=O)(=O)N1CC(=O)Nc2ccccc21 | 12.7%
O=C(CCSc1nnc2ccccn12)Nc1ccc2c(c1)OCO2 | 13.5%
Cc1nc2nc(SCC(N)=O)[nH]c2cc1Br | 15.8%
CCOC(=O)/C(=N\Nc1cc(Cl)ccc1Cl)N1CCN(C)CC1 | 2.01%
CC(=O)O[C@H]1CC[C@@]2(C)C(CCC3C2CC[C@]2(C)OC(=O)CCC32)C1 (stereo partly drawn) | 5.73%
CC(=O)NCCc1ccc(S(=O)(=O)NC2OC(=O)c3ccccc32)cc1 (stereo not drawn) | 2.05%
O=C(CNC1CCCCC1)Nc1ccc(S(=O)(=O)N2CCCCC2)cc1 | 6.26%
CCN(CC)C(=O)CNC(=O)Cc1ccc(Cl)cc1 | -15%
Cc1cccc(S(=O)(=O)N(CC(=O)Nc2ccccc2C)Cc2ccco2)c1 | -6.86%
CC(C)n1c(=O)c2c(O)cc(=O)oc2c2ccccc21 | 7.9%
CCCNC(=O)c1onc(CSc2ccc(F)cc2)c1C(=O)NCCOC | 8.95%
Cc1nn(Cc2ccccc2Cl)c(C)c1C(=O)OCC(=O)N1CC(C)OC(C)C1 (stereo not drawn) | 16.1%
Cn1nnc(NC(=O)COc2ccc(C3CCCCC3)cc2)n1 | -4.08%
COc1cccc(NC(=O)c2cccnc2)c1 | 10.9%
Clc1ccc(OCCSc2ncccn2)c2ccccc12 | 19.8%
O=C(NCC1CCCO1)c1ccc2c(=O)n(-c3ccc(F)cc3)c(=S)[nH]c2c1 (stereo not drawn) | 2.97%
O=C(CSc1nncn1-c1cccnc1)Nc1ccccc1C(F)(F)F | 1.88%
COc1ccc(C(=O)Cn2cc[n+](C)c2)cc1.[Br-] | 8.31%

Structure (SMILES) | hERG current change (%, negative = inhibition) at 1uM
CCOc1cc(C2NC(=O)NC(c3ccccc3)=C2C(C)=O)ccc1OCC(N)=O (stereo not drawn) | -7.7%
COc1ccc(Nc2nc(C)cc(=O)[nH]2)c(OC)c1 | -5.38%
Cc1ccc(S(=O)(=O)NCCC(=O)O)cc1 | 10.1%
O=C(CN(C1CCCCC1)S(=O)(=O)c1ccc(Cl)cc1)N1CCOCC1 | -34.1%
COc1ccc(-c2nc(N)ncc2-c2ccc(Cl)cc2)c(O)c1 | 19%
CCC(=O)c1ccc(N2CCN(C(=O)c3cc([N+](=O)[O-])ccc3N3CCN(C)CC3)CC2)c(F)c1 | -4.16%
CC(Sc1nc2ccccc2c(=O)n1CC1CCCO1)C(=O)Nc1ccc(S(N)(=O)=O)cc1 (stereo not drawn) | 3.99%
CC1=C(C(=O)Nc2ccccc2)C(c2ccco2)n2ncnc2N1 (stereo not drawn) | 12.9%
Cc1cc2nnc(SCC(=O)NCC3CCCO3)n2c2ccccc12 (stereo not drawn) | 10.6%
COc1cccc(NC(=O)COC(=O)CCC(=O)c2cccs2)c1 | 5.18%
S=c1nc(C2CC2)[nH]c2ccccc12 | 1.25%
COc1ccc(Cn2nnnc2C(c2cccs2)N2CCN(c3ccc([N+](=O)[O-])cc3)CC2)cc1 (stereo not drawn) | 10.5%
Cc1noc(C)c1CSCC(=O)N(C)CC(=O)Nc1ccc(Cl)c(C(F)(F)F)c1 | -7.81%
O=c1c2cc(-c3ccccc3)sc2ncn1/N=C/c1ccco1 | 15.3%
CCN(CC)S(=O)(=O)c1cc(NC(=O)Cc2n[nH]c(=O)c3ccccc23)ccc1C | 11.6%
CCN(CCNS(=O)(=O)c1ccc2[nH]c(=O)sc2c1)c1ccccc1 | -1.68%
CSCCC(NC(=O)OCc1ccccc1)C(=O)NCc1cccnc1 (stereo not drawn) | 9.52%
Cc1ccccc1Nc1cc(=O)oc2ccccc12 | 2.3%
COc1ccc(C(=O)CN2C(=O)c3ccccc3C2=O)c(OC)c1C | 11.3%
Cc1cccc(CC(=O)Nc2ccon2)c1 | 12.8%
COc1ccc(CCNC(=O)CCNC(=O)N2CC(=O)Nc3ccccc32)cc1OC | 21%
Cn1cc(CC(=O)NCCCN2CCOCC2)c2ccccc21 | 15.6%

Reference: paper PMC4336329 (PLoS ONE, 2015)
